Measured values as given in PubChem BioAssay AID1963837 (Molecular Pharmacology Branch, DTP, NCI, 2024).
The source holds more than one record for some entries. This is not the full list of results. The source may hold further records. Values that stand side by side are repeats in other runs, samples, wells, individuals or studies. Additions like (4×) stand for listed records that agree.

Tested on: 843126-344-R-J1-PDC complex spheroid viability
Assay: Anticancer human tumor 843126-344-R-J1-PDC patient-derived melanoma cell line growth inhibition [POLQ]
Settings: stronger effect = lower value
Protocol: Multicellular complex tumor spheroid response to Polymerase (POL) inhibitors (novobiocin, ART-558, RP6685) in combination with a variety of drugs and investigational agents in selected tumor cell lines
The POL inhibitors (novobiocin, ART-558, and RP6685) were evaluated both individually and in combination with standard of care and investigational anticancer small molecules within a complex spheroid model of solid tumors. . Complex spheroids include a stromal component modeled by human endothelial cells (HUVEC) and fibroblasts modeled by human mesenchymal stem cells (MSCs). The concentration ranges selected for each drug and investigational agent were based upon clinically achievable concentrations if the clinical Cmax of the agent was known.
Compounds. The drugs and investigational agents: novobiocin (NSC847541), ART-558 (NSC835418), RP-6685 (NSC848927), peposertib (NSC802822), ceralasertib (NSC780249), elimusertib (NSC800525), camonsertib (NSC841442), AZD-1390 (NSC803789), olaparib (NSC753686), talazoparib (NSC767125), rucaparib (NSC756644), sotorasib (NSC818433), MRTX-1133 (NSC836407), SN-38 (NSC673596), topotecan (NSC609699), epotoside (NSC141540), doxorubicin (NSC123127), gemcitabine (NSC613327), 5-fluorouracil (NSC19893), paclitaxel (NSC125973), vemurafenib (NSC761431), MSA-2 (NSC828583), SN-011 (NSC837082), adavosertib (NSC754352), prexasertib (NSC758257), carboplatin (NSC241240) and oxaliplatin (NSC266046), were obtained from the National Cancer Institute (NCI) Developmental Therapeutics Program Chemical Repository (21). The FDA-approved anticancer drug set is available from the Developmental Therapeutics Program at https://dtp.cancer.gov/organization/dscb/obtaining/. […] The stock solutions were prepared in dimethyl sulfoxide (DMSO, Sigma-Aldrich, St. Louis, MO, cat. D2650), except for the platinum compounds which were prepared in saline (Quality Biological, Gaithersburg, MD, cat. 114-055-101), at 800-fold the tested concentration and stored at -70 degrees C prior to their use. All drugs and investigational agents were tested over a range starting from a high concentration at or near the clinical Cmax and decreasing in half-log increments. If the clinical Cmax for an agent had not been determined, the highest concentration tested was 10 microM, except for SN-38, which was tested at a high concentration of 1 microM.
Cell Culture. All cells were maintained in an incubator at 37 degrees C and 5% CO2 with 95% humidity. The PDC lines were cultured according to standard operating procedures established by the NCI PDMR (https://pdmr.cancer.gov). Table 3 of the manuscript, lists the cell lines along with the number of the three cell types plated to form the mct-spheroids and media for tumor cell growth. After thawing, all PDC lines, except 997537-175-T-J1-PDC and 415267-285-R-J2-PDC, were cultured in Matrigel-coated flasks prepared with a working solution of 1X Ham's F-12 nutrient mix, without supplementation (Thermo Fisher Scientific, cat. 11765054), 100 U/mL penicillin-streptomycin (Thermo Fisher Scientific, cat. 15140122), and 2.5% Matrigel (Corning Inc., Corning, NY, cat. 354248) for the first three passages. The two PDC lines 997537-175-T-J1-PDC and 415267-285-R-J2-PDC were cultured on uncoated flasks. The 857933-349-R-J2-PDC line was cultured in 6C/Colon 1B media containing advanced DMEM/F-12 (Thermo Fisher Scientific, cat. 12634028), 10 mM HEPES (Thermo Fisher Scientific, cat. 15630080), 1X GlutaMAX supplement (Thermo Fisher Scientific, cat. 35050061), 0.1 mg/mL primocin (InvivoGen, San Diego, CA, cat. ant-pm-2), 10% defined fetal bovine serum, heat inactivated (HyClone Laboratories Inc., Logan, UT, cat. SH30070.03HI), 50% L-WRN conditioned media (ATCC, cat. CRL-3276), 1.25 mM N-Acetyl-L-cysteine (Sigma-Aldrich, cat. A9165), 10 mM nicotinamide (Sigma-Aldrich, cat. N0636), 1X B-27 supplement (Thermo Fisher Scientific, cat. 17504044), 1X N-2 supplement (Thermo Fisher Scientific, cat. […]
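Note: spheroids exposed to drugs for seven days before readout.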

Structure (SMILES) | viability, T/C (compound alone 0.0316 µM) | viability, T/C (compound alone 0.1 µM) | viability, T/C (compound alone 0.316 µM) | viability, T/C (compound alone 3.16 µM) | viability, T/C (compound alone 10 µM)
COC1C(OC(N)=O)C(O)C(Oc2ccc3c(O)c(NC(=O)c4ccc(O)c(CC=C(C)C)c4)c(=O)oc3c2C)OC1(C)C (stereo not drawn) | 95.2 (2×), 81.1, 105, 83.2, 98.8, 110, 77.5, 103, 96.1, 95.9, 94.6, 100% | 107, 81.1, 96.3, 95.8, 105, 98.2 (2×), 88.9, 99.2, 80.9, 92.9, 111, 99.5% | 97, 94.2, 87.5 (2×), 92.1, 89.5, 101 (2×), 90.1, 80.8, 107, 114, 86.1% | 96.7, 107, 89.2, 97.6, 84.9, 100, 105, 85, 75, 88.8, 101, 81.7, 86.2% | 94, 73.4, 90.6, 92.4, 89.8, 89.2, 91.5, 82.3 (2×), 107, 94.3, 91.6, 83.4%
Cc1cccc(N(C)C(=O)C2C(O)CCN2c2nc(C)cc(C(F)(F)F)c2C#N)c1 (stereo not drawn) | 98.2, 92 (2×), 89.4, 91.3, 91.9, 85.2, 100, 99, 118, 96.9, 96.6% | 82.6, 94.6, 102 (2×), 91.7, 87.8, 109, 92.3, 104, 90.3, 105, 101% |  | 86.7, 80.6, 97.4, 72, 80.4, 76.3, 87.6, 100, 95.2, 82.8, 102, 91.5% | 
